Values joined by “and” are separate entries in the source; they are usually repeats but may differ in a detail not shown here. Equal values may be shown once. About 930 (0.24%) of roughly 390,000 compounds were called active. The inconclusive results got no clear call from the source; some entries with a clear call stand among them for comparison. Calls follow the shape of the dose curve; as a rule, active = well fitted activation curve with a large enough effect; inconclusive = small, poorly fitted or top-dose-only effect; inactive = no such curve, though single readings can be large or run the other way. Where the call is inconclusive, the potency comes from a doubtful curve fit. Numbered stars: 1 amine (or outer) side, 2 acyl side, 3 side chain; on linkers, the order of the positions; unused ones are H or OH. Bridge positions count the residues as written; N and C are the ends. Square brackets hold non-standard residues; d marks the D form. Peptide text beside a SMILES is read from it. X8 = C[C@H](Cc1ccccc1)[C@H](N[*:1])C(=O)[*:2]; X9 = CCC[C@@H](O[*:2])C(C)(C)C(=O)[*:1]; Hiv = CC(C)[C@H](O)C(=O)O
assay: qHTS for Suppressors of FUS Proteinopathy: Primary screen using FUS-linked yeast assay; also: nearly all actives have a fitted effect of over 55% in size;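 as to growth rescue (activation): plate controls were DMSO vehicle for no effect and reference control for full effect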; settings: S. cerevisiae FUS-expressing, OD600, 24 h; Potency: growth rescue; growth rescue (activation): at 76.6 µM (top of the series)
How it was run: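 Yeast expressing FUS under galactose induction, OD 0.005 in 2% galactose medium; compounds in a dilution series, 24 h at 30C. Growth rescue by absorbance at 600 nm; CP55940 positive control, DMSO negative.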
Potency is read from the fitted curve at half-maximal effect; tags tell the direction and shape of the fitted curve.

| Structure (SMILES) | Potency | growth rescue (activation) |
| --- | --- | --- |
| CCN(CC)C(=O)c1sc2c(c1C)c(=O)n(-c1ccc(C)c(C)c1)c(=O)n2CC(=O)Nc1ccc(OC)cc1OC | inconclusive: 31.6 µM [activator, partial curve, poor fit] | – |
| COc1ccc(OC)c(CNS(=O)(=O)c2cc(-c3onc(C)c3C)ccc2C)c1 | – | inactive: 35.7% |
| CCOC(=O)N1CCC(NC(=O)c2sc(-n3cccc3)nc2C)CC1 | inconclusive: 8.91 µM [activator, partial curve] | – |
| C#CCNC(=O)C1=C[C@H](c2ccc(C(F)(F)F)cc2)[C@@H](CCCO)[C@H](OCC)O1 | inconclusive: 7.08 µM [activator, partial curve, poor fit] | – |
| O=C(NCc1ccccc1)C(c1ccc(C(F)(F)F)cc1)n1c(=O)c(-c2cc3ccccc3[nH]2)nc2ccccc21 (centres undefined) | inconclusive: 44.7 µM [activator, single point] | – |
| Cc1cc(C)cc(NC(=S)NCc2ccc3[nH]c4c(c3c2)CCCC4)c1 | inconclusive: 35.5 µM [activator, single point] | – |
| O=C1OC(c2ccc3ccccc3c2O)(c2ccc3ccccc3c2O)c2ccccc21 | inconclusive: 1 µM [activator, full curve, poor fit] | – |
| COc1ccc(NC(=O)CCCN2C(=O)/C(=C\c3ccco3)SC2=S)cc1 | inconclusive: 14.1 µM [activator, partial curve] | – |
| CCc1ccccc1NC(=O)Cn1nnc(C(=O)NCc2ccco2)c1N | – | inactive: -21.6% |
| COc1ccc(C(=O)c2c(C(F)(F)F)oc3c2C(=O)c2ccccc2C3=O)cc1 | – | inactive: -6.03% |
| O=C(NCCc1ccccc1)c1ccc(CSc2nc3cccnc3n2Cc2ccccc2)cc1 | – | inactive: -6.95% |
| CCOc1ccc(S(=O)(=O)Nc2nc3ccccc3nc2Cl)cc1 | – | inactive: -18.2% |
| C[C@H](CO)N1C[C@H](C)[C@@H](CN(C)S(=O)(=O)c2ccc(F)cc2)Oc2ccc(NC(=O)Nc3ccccc3)cc2C1=O | inconclusive: 20 µM [activator, single point] | – |
| CCCCCCSc1cccc(-c2nc3cc(C)ccn3c2NCc2ccccc2)c1 | inconclusive: 20 µM [activator, single point] and inconclusive: 35.5 µM [activator, single point] | – |
| CC(=O)c1ccccc1NC(=O)COC(=O)C1CCCN1S(=O)(=O)c1ccccc1F (centres undefined) | – | inactive: 13.2% |
| COc1ccccc1N(CC(=O)Nc1ccc2c(c1)OCCO2)S(=O)(=O)c1ccc(C)cc1 | inconclusive: 22.4 µM [activator, single point] | – |
| COC(=O)[C@]12C[C@H](CC(=O)NCc3ccc(C)o3)C(=O)N(Cc3ccccc3)C1=C[C@H](COCc1ccccc1)O[C@@H]2C | active: 35.5 µM | – |
| CCC[C@H]1OC(=O)[C@@H]2CCCN2C(=O)[C@H]([C@H](C)Cc2ccccc2)NC(=O)[C@@H]2CCCN2C(=O)[C@@H]2CCCN2C(=O)[C@H](C(C)C)OC(=O)[C@@H]2CCCN2C(=O)[C@H](C(C)C)NC(=O)C1(C)C (VP[Hiv]PP[X8]P; linker N-C via X9) | inconclusive: 8.91 µM [activator, full curve, poor fit] | – |
| CCOC(=O)c1ccc(NC(=O)c2nc[nH]c2C(=O)NCc2ccccc2)cc1 | inconclusive: 20 µM [activator, partial curve] | – |
| COc1ccc2[nH]c3c(c2c1)CCN1C(=O)C(CC(=O)NCc2cccc(C(F)(F)F)c2)C[C@H](C(=O)N2CCCCC2)[C@@]31C (some centres undefined) | inconclusive: 28.2 µM [activator, single point] | – |

| Structure (SMILES) | Potency | growth rescue (activation) |
| --- | --- | --- |
| COc1ccccc1C(C)NCC(=O)Nc1ccccc1C(F)(F)F (centres undefined) | – | inactive: -17.5% |
| O=C(Nc1ccc(F)c(Cl)c1)c1cc(S(=O)(=O)NCc2ccc3c(c2)OCO3)ccc1F | inconclusive: 50.1 µM [activator, single point] | – |
| COc1ccc(CC(=O)OCn2nnc3ccccc3c2=O)cc1 | inconclusive: 5.01 µM [activator, partial curve, poor fit] | – |
| NC(=O)c1cc(N)ccc1N1CCCC1 | inconclusive: 56.2 µM [activator, partial curve, poor fit] | – |
| COc1ccc(OC)c(NC(=O)CSc2nnc(Cc3cccn3C)n2CCc2ccccc2)c1 | inconclusive: 39.8 µM [activator, partial curve, poor fit] | – |
| CCN(c1ccc(OC)cc1)S(=O)(=O)c1ccc2c(c1)NC(=O)CS2 | inconclusive: 50.1 µM [activator, single point] | – |
| O=C(O)CCc1ccc(-c2ccc(Br)cc2)n1-c1ccccc1O | inconclusive: 44.7 µM [activator, partial curve, poor fit] | – |
| CCOC(=O)C1CCN(c2cc3c(cc2NC(=O)c2ccccc2Cl)n(C)c(=O)n3C)CC1 | inconclusive: 22.4 µM [activator, single point] and inconclusive: 17.8 µM [activator, single point] | – |
| Cc1ccc(C(=O)c2sc(Nc3ccc(F)cc3)c(C#N)c2N)cc1 | inconclusive: 10 µM [activator, partial curve, poor fit] | – |
| CCN1/C(=C2\SC(=S)N(Cc3ccccc3)C2=O)Sc2ccccc21 | inconclusive: 12.6 µM [activator, partial curve, poor fit] | – |
| Cc1ccc(OC(=O)CSc2nnc(-c3ccc4c(c3)OCO4)o2)c(C)c1 | – | inactive: -12% |
| Cc1ccc(NC(=O)N2CCN(C(=O)c3nsc4ccccc34)CC2)cc1C | – | inactive: 21.4% |
| CCOC(=O)[C@]12CCCCC/C=C\1N(CCc1ccc(Cl)cc1)C(=O)[C@H]2CC(=O)NCCCCc1ccccc1 | inconclusive: 14.1 µM [activator, partial curve] | – |
| CCOc1ccc(C(=O)Nc2cc(-c3nc4ccccc4[nH]3)ccc2C)cc1[N+](=O)[O-] | inconclusive: 15.8 µM [activator, partial curve] | – |
| O=C(C[C@H]1C(=O)N(Cc2cccnc2)C[C@@H]1Cc1ccccc1)Nc1ccc(Br)cc1 | inconclusive: 17.8 µM [activator, partial curve, poor fit] | – |
| O=C(COc1ccc(-n2cnnn2)cc1)NC(=O)NCc1ccccc1 | inconclusive: 15.8 µM [activator, partial curve, poor fit] | – |
| COc1ccc(N(Cc2cc(=O)[nH]c3ccccc23)C(=O)CCl)cc1 | – | inactive: 21% |
| Cn1c(NCCN2CCCC2)nc2cc(-c3ccccc3)sc2c1=O | – | inactive: -10.4% |
| COC(=O)c1ccc(NC(=O)CCNS(=O)(=O)c2cccc3nsnc23)cc1 | – | inactive: 5.54% |
| COCCCNC(=O)C[C@@H]1C(=O)N(CCc2ccc(Cl)cc2)C2=CCCCC[C@]21C(=O)OC | – | inactive: 41.2% |

| Structure (SMILES) | Potency | growth rescue (activation) |
| --- | --- | --- |
| O=C(CSc1nc2c([nH]c3ccccc32)c(=O)n1-c1ccc(F)cc1)N1CCCc2ccccc21 | – | inactive: -19% |
| CCN=C1NN=C(c2cc(C)n(CCc3ccccc3)c2C)CS1 | inconclusive: 35.5 µM [activator, partial curve, poor fit] | – |
| COCCN(C(=O)CSc1nnc(C)n1Cc1ccccc1)c1c(N)n(CC(C)C)c(=O)[nH]c1=O | – | inactive: 4.75% |
| COc1ccc(CSc2nnc(SCC(=O)Nc3ccc4c(c3)OCO4)s2)cc1 | – | inactive: 11.3% |
| CCN(CC)C(=O)CSc1nnc2nnc3cc(OC)ccc3n12 | – | inactive: 14.8% |
| CCOC(=O)c1cc(-c2ccccc2)nc2nc(N(CC)CC)sc12 | inconclusive: 39.8 µM [activator, single point] | – |
| COCCCNc1ccn2nc(-c3ccc(CC(C)C)cc3)cc2n1 | active: 25.1 µM | – |
| COC(=O)[C@]12C[C@H](CC(=O)NCc3ccc(C)o3)C(=O)N(Cc3cccc4ccccc34)C1=C[C@H](C(C)(C)C)O[C@@H]2C | inconclusive: 22.4 µM [activator, partial curve, poor fit] | – |
| COc1ccc(N2CCN(C(=O)CCCCCn3c(=S)[nH]c4ccc(N5CCOCC5)cc4c3=O)CC2)cc1 | inconclusive: 28.2 µM [activator, partial curve, poor fit] | – |
| COC(=O)[C@]12C[C@H](CC(=O)NCC34CC5CC(CC(C5)C3)C4)C(=O)N(Cc3cccc4ccccc34)C1=C[C@H](COCc1ccccc1)O[C@@H]2C | inconclusive: 17.8 µM [activator, single point] | – |
| CC(C)Cc1nc(C(N)=O)c2[nH]c(=O)n(-c3ccc(F)cc3)c2n1 | – | inactive: -4.04% |
| CCn1c(COc2c(C)cccc2C)nnc1SCC(=O)N1CCN(c2ccccc2)CC1 | – | inconclusive: 75.3% [activator] |
| Cc1cccc(NC(=S)NC(=O)Cc2ccccc2)c1C | – | inactive: 7.54% |
| COc1ccc2c(c1)C=C([C@@H]1C[C@H]3CN(c4ccccc4)C(=O)[C@]34CCCN14)CO2 | inconclusive: 44.7 µM [activator, single point] | – |
| CC(C)S(=O)(=O)c1nsc2nc(=O)c(/C=C3\C=Nc4ccccc43)c(N)n12 | – | inactive: -9.49% |
| COc1ccccc1CNC(=O)c1csc(Cc2ccc(Cl)cc2)n1 | inconclusive: 50.1 µM [activator, single point] | – |
| CCN(CCO)c1ncnc2c1sc1nc(CC(C)C)c3c(c12)CC(C)(C)OC3 | inconclusive: 35.5 µM [activator, single point] | – |
| CC(C)(C)c1ccc(-c2cn(C[C@H](Cc3ccccc3)n3c(=O)c4ccccc4n3Cc3ccno3)nn2)cc1 | inconclusive: 15.8 µM [activator, partial curve, poor fit] | – |
| N=c1c(C(=O)NCc2ccc3c(c2)OCO3)cc2c(=O)n3ccccc3nc2n1Cc1cccnc1 | inconclusive: 31.6 µM [activator, partial curve, poor fit] | – |

Source: PubChem BioAssay AID1347120 (National Center for Advancing Translational Sciences (NCATS), 2019)
